The values below come from ChEMBL document CHEMBL4888484, “Replenishing the malaria drug discovery pipeline: Screening and hit evaluation of the MMV Hit Generation Library 1 (HGL1) against asexual blood stage Plasmodium falciparum ,using a nano luciferase reporter read-out” (2022).

About 540 (0.36%) of roughly 150,000 compounds showed an effect of 50% or more. The list shows a part of the results.

The experiment relates to Plasmodium falciparum. Kind of experiment: Primary screen in NF54 nanoGlo assay, in single point, at 2uM, 72h; a lower Z score goes with more inhibition. It counts as functional, Erythrocyte. As to conditions: timepoint 72 hour.
Consider `Cc1ccsc1[C@H]1CCN(Cc2c(CO)cnc(C)c2O)C[C@@H]1O`, for which the “% Inhibition” value stood at 1% and the Z score is given as -0.24.
For `C[C@@H]1CCC[C@H](C)N1C(=O)CCc1nnc(Cc2cccc(C(F)(F)F)c2)o1` the same measures were -14% and 1.24.
With `Cc1nnc([C@@H](NC(=O)Nc2ccccc2F)C(C)C)[nH]1`, the “% Inhibition” value is given as 39% and the Z score is listed as -5.19.
For the compound `CC(C)(C)C(=O)NCC[C@H](O)c1cccc(Cl)c1`, the “% Inhibition” value is recorded as -8% and the Z score came out at 1.
As for `Cc1ncsc1-c1nc(CS(=O)(=O)C[C@H]2CCCO2)no1`, the “% Inhibition” value was -6% and the Z score is recorded as 1.15.
For `CC(=O)N1CCc2c(N[C@@H]3C=Cc4ccccc4OC3)cccc21` the same measures were -6% and 1.23.
For `O=C(c1ccc(-c2cnn(CCO)c2)cc1)N1CCCCCC1` the same measures were -7% and 0.83.
Turning to `O=C(NCC(F)F)c1cn2cc(-c3ccccc3Cl)n(CC3CC3)c(=O)c2n1`, the “% Inhibition” value is 1% and the Z score is recorded as -0.11.
Take `CC(C)Nc1oc(-c2cccnc2)nc1C#N`: the “% Inhibition” value is on record as -13% and the Z score is recorded as 1.69.
For `FC(F)(F)c1cccc2c1OCCN2Cc1cn(C[C@H]2CCOC2)nn1` the same measures were -1% and 0.12.
Consider `CCc1cc(N2CCc3c(cccc3C(N)=O)C2)nc(CC)n1`, for which the “% Inhibition” value is given as -12% and the Z score was 1.5.
Take `O=C(O)C1(C(=O)Nc2ccc(CN3CCOCC3)cc2)CCCCCC1`: the “% Inhibition” value came out at 3% and the Z score is given as -0.6.
Consider `CN(Cc1nc(-c2ccccn2)no1)C1CCN(C(=O)c2cccs2)CC1`, for which the “% Inhibition” value is reported as -6% and the Z score stood at 1.18.
For `CC1CC1C(=O)NCC(NC(=O)C1CC1C)C1CC1` (configuration not stated) the same measures were -5% and 1.
For `CNC(=O)c1ccc2n1CCN(C(=O)OC(C)(C)C)[C@H]2C` the same measures were -11% and 1.07.
In the same order, the values of `CC(=O)N(CCN1CCOCC1)[C@H]1CCN(C(=O)Nc2ccccc2C)C1` are -11% and 1.48.
For the compound `CN(C[C@H]1CCn2ccnc2C1)C(=O)c1cc2ccc(Cl)cc2[nH]1`, the “% Inhibition” value is reported as -38% and the Z score is given as 4.42.
In the same order, the values of `Cc1cccc2nc(CCNC(=O)N3CC(Cc4ccoc4)C3)cn12` are -6% and 0.9.
For `CCc1nc(C)c(-c2c(-c3ccccc3)ncn2[C@H]2CCCCNC2=O)[nH]1` the same measures were -3% and 0.43.
For `COc1ccc(OC)c(-c2cc(C(=O)NCC#CCOc3ccc4c(c3)OCO4)n(C)n2)c1` the same measures were 7% and -0.87.
`Cc1cn2cc(C(=O)N[C@H]3CCCOC3)ccc2n1`: the “% Inhibition” value is reported as -8% and the Z score came out at 1.17.
In the same order, the values of `CCc1noc(C)c1CS(=O)(=O)[C@H]1CCOC1` are -8% and 1.2.
For `CCC1CCN(S(=O)(=O)NCc2nc(C(N)=O)co2)CC1` the same measures were 2% and -0.38.
Take `CC(C)(C)N(CCS(C)(=O)=O)C(=O)c1ccncc1Cl`: the “% Inhibition” value was -8% and the Z score is listed as 0.69.
For `CCCn1ccnc1CN1C[C@H]2C[C@H](O)[C@H](O)C[C@H]2C1` the same measures were -5% and 0.67.
For `CCn1cnc2c1CCN(C(=O)Nc1cc(CN(C)C)ccn1)C2` the same measures were -6% and 1.17.
In the same order, the values of `COCCN(Cc1scnc1C)C(=O)Cn1ccnc1C` are -14% and 1.82.
Turning to `O=C(C[C@@H]1COC2(C1)CN(S(=O)(=O)c1cccc(Cl)c1)C2)NCC1CC1`, the “% Inhibition” value is listed as -1% and the Z score was 0.12.
In the same order, the values of `CC(Cc1ccco1)NC(=O)N(C)C1CCS(=O)(=O)C1` (configuration not stated) are -6% and 0.95.
In the case of `CC1CC(C)CN(C(=O)c2cc(NC(=O)c3ccccc3)n(C)n2)C1` (configuration not stated), the “% Inhibition” value came out at 33% and the Z score was -4.72.
For `CNC(=O)c1ccc(CN2C[C@H](NS(=O)(=O)N(C)C)[C@@H](C(C)C)C2)o1` the same measures were -23% and 2.06.
As for `Cc1cccc(NCc2ccnc(OCC(F)F)c2)n1`, the “% Inhibition” value stood at 0% and the Z score is reported as 0.07.
With `CO[C@@H](C)CS(=O)(=O)Nc1cccc(-n2cc(C)[nH]c2=O)c1`, the “% Inhibition” value is recorded as -10% and the Z score was 0.87.
As for `CC(C)(NC(=O)CCCc1ccccn1)c1cc(C(F)F)on1`, the “% Inhibition” value turned out to be 4% and the Z score is reported as -0.74.
Turning to `O=C(Nc1cccnc1)c1c(-c2ccccc2)c(-c2ccccc2)n[nH]c1=O`, the “% Inhibition” value is reported as -2% and the Z score is recorded as 0.37.
Take `COc1cccc(-n2c(=O)n(C3CCCC3)c(=O)c3c2ncn3Cc2ccc(C(C)(C)C)cc2)c1`: the “% Inhibition” value is -5% and the Z score is on record as 0.63.
For `Cn1cc(CN2CCCC[C@@H]2CCc2ccccc2)cn1` the same measures were -2% and 0.2.
For `CCS(=O)(=O)c1ccc(N2CCC(Cn3cncn3)CC2)cc1` the same measures were -1% and 0.13.
In the same order, the values of `O=C(O)c1csc(-n2nc(-c3ccc(Br)cc3)cc2C(F)(F)C(F)F)n1` are 35% and -3.94.
`COc1cccc(C(=O)N2[C@H](C(=O)NCc3ccccc3)COC23CCN(C(=O)c2ccccc2F)CC3)c1`: the “% Inhibition” value is -3% and the Z score was 0.51.
In the same order, the values of `COc1cccc(NC(=O)c2ncoc2-c2ccco2)c1` are -14% and 1.4.

What is called % Inhibition is the relative decrease from the control value, in per cent.
